# Measurements published in PubChem BioAssay (NCATS).
# Where “and” joins values, the source holds several entries; their conditions need not be identical. Identical values can stand only once. The inconclusive results got no clear call from the source; some entries with a clear call stand among them for comparison. For some assays here: No potency is given beside an inconclusive call; the fits are too rough. Calls of active or inactive are those of the source. Unless noted, the call rests on the fitted dose curve; in most records, active means well fitted curve in either direction with a large enough effect (not every such curve was filed as active); inconclusive means small, poorly fitted or top-dose-only effect, or another doubt; inactive means flat fitted curve, though single readings scatter.
# Assays:
# [1] = AP1 Signaling Pathway (AID 357); settings: ME-180 (cervical carcinoma) AP-1-bla reporter, EGF-induced, beta-lactamase ratio, 5 h;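 further: ME-180 reporter cells stimulated with EGF at its EC50 level; top concentration of the series differs between compounds; on the % scale 0 is the no-effect control and ±100 the full control effect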
# Outline: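 In this screen, ME-180 cells in Opti-MEM with 0.5% dialyzed FBS received EC50 EGF and compound titrations for 5 h. AP-1 reporter beta-lactamase was detected via CCF4 ratio, giving AC50 for positive and negative modulators.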
# [2] = target: Cytochrome P450 1A2 (Homo sapiens) (UniProt P05177); test: p450-cyp1a2 (AID 410; calls by dose curve; further: potency means the concentration at half of the fitted maximal effect;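 on activity change, negative = inhibition: top concentration of the series differs between compounds; -100% = full effect of reference inhibitor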); settings: recombinant CYP1A2, luciferin-ME demethylation, luminescence
# UniProt P05177, sequence (P05177 whole entry, looked up): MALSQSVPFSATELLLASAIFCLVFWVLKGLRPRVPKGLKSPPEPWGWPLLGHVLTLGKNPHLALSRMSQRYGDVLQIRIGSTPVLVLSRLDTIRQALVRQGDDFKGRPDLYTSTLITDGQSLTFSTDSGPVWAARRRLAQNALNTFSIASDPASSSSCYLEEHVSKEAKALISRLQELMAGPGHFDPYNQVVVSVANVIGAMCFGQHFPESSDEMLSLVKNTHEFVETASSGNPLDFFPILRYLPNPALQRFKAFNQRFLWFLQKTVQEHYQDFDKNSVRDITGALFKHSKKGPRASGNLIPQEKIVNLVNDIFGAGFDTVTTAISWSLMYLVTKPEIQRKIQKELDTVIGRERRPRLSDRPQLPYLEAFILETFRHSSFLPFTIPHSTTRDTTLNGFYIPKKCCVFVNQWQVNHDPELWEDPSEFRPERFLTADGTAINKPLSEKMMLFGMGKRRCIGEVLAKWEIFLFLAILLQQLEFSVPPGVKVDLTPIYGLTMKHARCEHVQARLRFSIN
# Outline: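 Luminescent readout of luciferin formed from Luciferin-ME by human CYP1A2; data normalized against complete inhibition by 57 uM furafylline. Enzyme 20nM, substrate 100uM at Km, 100mM KPO4 buffer, 60 min reaction at room temperature.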
# [3] = NFAT Signaling Pathway (AID 444); settings: Jurkat NFAT-bla M1, carbachol, beta-lactamase ratio, 5 h;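 further: carbachol stimulus at about its EC50 of 1 µM final; on the % scale 0 is the no-effect control and ±100 the full control effect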
# Outline: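 Jurkat cells with NFAT-driven β-lactamase reporter and co-expressed M1 receptor, stimulated with carbachol (final 1 uM, ~EC50), compound titration, 5 h at 37 °C. CCF4 loaded 1 h at RT; 460/530 nm ratio gave %activity and AC50.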
# [4] = Cell Viability - Jurkat (AID 426;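 active means dose-dependent loss of cell ATP signal giving a full or clear fitted curve, ranked by lower potency value; inconclusive means weak partial curve or response only at the top dose; inactive means no loss of viability signal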;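 further: potency means the concentration at half of the fitted maximal effect; cells exposed to compound for 40 hours at 37 °C before ATP read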); settings: qHTS
# Outline: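 qHTS, 1536-well; Jurkat E6-1, 5000 cells/well, complete medium; cpd 40 hr, 37 °C; CellTiter-Glo 20 min RT; luminescence. AC50 by Hill fit.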
# [5] = Cell Viability - Hek293 (AID 427;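 active means compounds whose dose-response curve shows a full or clear partial loss of cell viability, called from curve shape rather than a numeric limit; inconclusive means weak partial curves or an effect only at the top dose; inactive means no dose-dependent loss of viability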;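 further: potency means the concentration at half of the fitted maximal effect; cells exposed to compound for 40 hours at 37 °C before reading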); settings: qHTS
# Outline: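 Luminescent ATP content (CellTiter-Glo, 20 min at room temperature) was measured after a 40 hr, 37 °C compound exposure of HEK293 cells. AC50 values came from Hill-equation fits of qHTS concentration-response data normalized to DMSO and 100 uM tamoxifen.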
# [6] = Cell Viability - HepG2 (AID 433; calls by dose curve;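 further: potency means the concentration at half of the fitted maximal effect; potency for ATP loss meaning cytotoxicity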); settings: qHTS
# Outline: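 HepG2 cells, 1500 per well, treated 40 hr at 37 °C in complete medium; viability from intracellular ATP by CellTiter-Glo luminescence. Normalized to DMSO and 100 uM tamoxifen; AC50 from Hill fit of qHTS concentration-response.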
# [7] = Cell Viability - MRC5 (AID 434; calls by dose curve;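 further: potency means the concentration at half of the fitted maximal effect; cells exposed to compound for 40 hours at 37 °C; potency reflects cytotoxicity seen as loss of intracellular ATP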); settings: MRC5 lung fibroblast viability, qHTS
# Excerpt: NIH Chemical Genomics Center [NCGC]
# NIH Molecular Libraries Screening Centers Network [MLSCN]
# National Institutes of Environmental Health Sciences [NIEHS]
# National Toxicology Program [NTP]
# We have developed a 1536-well cell-based assay for quantitative high throughput screening (qHTS) against a number of cell lines to determine in vitro cytotoxicity of small molecules. This particular assay uses the MRC5 cell line which is derived from normal human lung fibroblasts.
# NCGC Assay Protocol Summary:
# The CellTiter-Glo luminescent cell viability assay (Promega) is a homogeneous method to measure the number of viable cells in culture. The end point readout of this assay is based on quantitation of intracellular ATP, an indicator of metabolic activity, using the luciferase reaction. Luciferase catalyzes the oxidation of beetle Luciferin to oxyluciferin and light in the presence of ATP. The luminescent signal is proportional to amount of ATP present.
# Using the CellTiter-Glo luminescent cell viability assay, the amount of cellular ATP was measured in the MRC5 cell line with complete culture medium following compound treatment for 40 hours. The assay was performed in opaque white Kalypsys 1536-well plates. In the screen, tamoxifen and doxorubicin were used as positive controls. Library compounds were measured for their ability to cause acute toxicity in the cell line, as reflected by a decrease in intracellular ATP levels, in a concentration-dependent manner. Data were normalized to the controls for basal activity (DMSO only) and 100% inhibition (100 uM tamoxifen). AC50 values were determined from concentration-response data modeled with the standard Hill equation.
# qHTS protocol for CellTiter Glo MRC5 cellular assay
# [Step] [Parameter] [Value] [Description]
# 1. Reagent; 5 uL; 1500 MRC5 cells/well
# 2. Time; 5 hr; 37 °C incubation
# 4. Controls; 23 nL; Tamoxifen 0.34 uM to 100 uM & Doxorubicin 0.02 nM to 100 uM
# 5. Time; 40 hr; 37 °C incubation
# 6. Reagent; 5 uL; CellTiter Glo reagent
# 7. Time; 20 min; Room Temperature
# 8. Detection; Luminescence; Viewlux plate reader
# Keywords: cell viability, cytotoxicity, MRC5 cell line, luminescence, NTPHTS, NTPHTS_NCGC, NIEHS, EPA, DSSTox, MLSMR, MLSCN, NIH Roadmap, qHTS, NCGC
# [8] = Cell Viability - SK-N-SH (AID 435; calls by dose curve;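 further: potency means the concentration at half of the fitted maximal effect; compound exposure lasted 40 h at 37 °C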); settings: SK-N-SH neuroblastoma cell viability qHTS
# Outline: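 SK-N-SH neuroblastoma cells (1500/well) treated 40 h at 37 °C in complete medium; viability read as cellular ATP by CellTiter-Glo luminescence. Normalized to DMSO and 100 uM tamoxifen; AC50 from Hill fits of qHTS concentration-response.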
# Tags describe the fitted curve by direction and shape.
smiles,measurement,setting,value
C[C@H](Cc1ccc(O)c(O)c1)[C@@H](C)Cc1ccc(O)c(O)c1,"activity change, negative = inhibition",[1]; at 38 µM (top of the series),inconclusive: -63% [inhibitor]
same,Potency,[2],inconclusive [decreasing]
same,"activity change, negative = inhibition",[3]; at 38 µM (top of the series),inconclusive: -41.5% [inhibitor]
CC(C)(C)NC[C@H](O)COc1cccc2c1CCCC2=O,"activity change, negative = inhibition",[1]; at 17.2 µM (top of the series),inconclusive: 0.288% [inhibitor]
same,Potency,[2],inactive
Cc1cccc(C#Cc2ccccc2)n1,"activity change, negative = inhibition",[1]; at 38 µM (top of the series),inactive: -4.48%
CCC(=C(CC)c1ccc(O)cc1)c1ccc(O)cc1,"activity change, negative = inhibition",[1]; at 17.2 µM (top of the series),inconclusive: -95.1% [inhibitor]
same,"activity change, negative = inhibition",[3]; at 17.2 µM (top of the series),inconclusive: -120% [inhibitor]
CCN(CC)CCNC(=O)COc1ccc(OC)cc1,"activity change, negative = inhibition",[1]; at 17.2 µM (top of the series),inactive: 4.26%
O=C1c2c(O)ccc(O)c2C(=O)c2c(NCCNCCO)ccc(NCCNCCO)c21,"activity change, negative = inhibition",[1]; at 17.2 µM (top of the series),inconclusive: -93.5% [inhibitor]
same,"activity change, negative = inhibition",[1]; at 38 µM (top of the series),inconclusive: -104% [inhibitor]
same,"activity change, negative = inhibition",[3]; at 17.2 µM (top of the series),inconclusive: -85.4% [inhibitor]
same,"activity change, negative = inhibition",[3]; at 38 µM (top of the series),inconclusive: -86.7% [inhibitor]
COc1cccc(-c2cc(=O)c3ccccc3o2)c1N,"activity change, negative = inhibition",[1]; at 38 µM (top of the series),inconclusive: -45.3% [inhibitor]
O=Nc1c(-c2c(O)[nH]c3ccccc23)[nH]c2ccccc12,"activity change, negative = inhibition",[1]; at 38 µM (top of the series),inconclusive: -78% [inhibitor]
CNC(=O)Oc1ccc2c(c1)[C@]1(C)CCN(C)[C@@H]1N2C,"activity change, negative = inhibition",[1]; at 17.2 µM (top of the series),inactive: 8.81%
COc1cc(OC)c(C(=O)CCCN2CCCC2)c(OC)c1,"activity change, negative = inhibition",[1]; at 17.2 µM (top of the series),inactive: 11.3%
same,"activity change, negative = inhibition",[3]; at 17.2 µM (top of the series),inconclusive: -33.4% [inhibitor]
O=c1c(O)c(-c2ccc(O)cc2)oc2cc(O)cc(O)c12,"activity change, negative = inhibition",[1]; at 17.2 µM (top of the series),inconclusive: -62.4% [inhibitor]
same,"activity change, negative = inhibition",[3]; at 17.2 µM (top of the series),inconclusive: 2.34% [activator]
Nc1ccc(N=Nc2ccccc2)c(N)n1,"activity change, negative = inhibition",[1]; at 17.2 µM (top of the series),inconclusive: -45.8% [inhibitor]
same,Potency,[4],inconclusive [single point]
CC(C)c1ccc2c(c1)c(SC(C)(C)C)c(CC(C)(C)C(=O)O)n2Cc1ccc(Cl)cc1,"activity change, negative = inhibition",[1]; at 38 µM (top of the series),inconclusive: -47.6% [inhibitor]
same,Potency,[2],active: 25.1 µM and active: 31.6 µM
same,"activity change, negative = inhibition",[3]; at 38 µM (top of the series),inconclusive: 24.5% [inhibitor]
CNCC[C@H](Oc1ccc(C(F)(F)F)cc1)c1ccccc1,"activity change, negative = inhibition",[1]; at 38 µM (top of the series),inconclusive: 44.6% [activator]
same,"activity change, negative = inhibition",[3]; at 17.2 µM (top of the series),inconclusive: -42.7% [inhibitor]
CN1CCC(=C2c3ccccc3CCc3sccc32)CC1,"activity change, negative = inhibition",[1]; at 17.2 µM (top of the series),inconclusive: 57.7% [activator]
same,"activity change, negative = inhibition",[3]; at 17.2 µM (top of the series),inconclusive: -62.1% [inhibitor]
Cc1c(N)c(=O)n(-c2ccccc2)n1C,"activity change, negative = inhibition",[1]; at 17.2 µM (top of the series),inactive: 7.65%
Cc1cc(O)c2c(c1)C(=O)c1cc(O)cc(O)c1C2=O,"activity change, negative = inhibition",[1]; at 38 µM (top of the series),inconclusive: -57.4% [inhibitor]
same,Potency,[4],inconclusive [partial curve]
same,Potency,[5],inconclusive [partial curve]
same,Potency,[6],inconclusive [partial curve]
CCCC(=O)O[C@]1(C(=O)CCl)[C@@H](C)C[C@H]2[C@@H]3CCC4=CC(=O)C=C[C@]4(C)[C@@]3(F)C(=O)C[C@@]21C,"activity change, negative = inhibition",[1]; at 17.2 µM (top of the series),inactive: 2.19%
same,"activity change, negative = inhibition",[3]; at 17.2 µM (top of the series),inconclusive: -42.3% [inhibitor]
O=C1NC(=O)C(c2ccccc2[N+](=O)[O-])=C1Nc1ccc(O)c(Cl)c1,"activity change, negative = inhibition",[1]; at 38 µM (top of the series),inconclusive: -30.8% [inhibitor]
same,Potency,[2],inconclusive [decreasing]
O=C(O)c1ccccc1Nc1ccccc1,"activity change, negative = inhibition",[1]; at 38 µM (top of the series),inactive: 4.51%
Cn1cc(C2=C(c3ccc(Cl)cc3Cl)C(=O)NC2=O)c2ccccc21,"activity change, negative = inhibition",[1]; at 38 µM (top of the series),inconclusive: -21.5% [inhibitor]
same,"activity change, negative = inhibition",[3]; at 38 µM (top of the series),inconclusive: -109% [inhibitor]
N#C/C(=C\c1ccc(O)c(O)c1)C(=O)Nc1ccccc1,"activity change, negative = inhibition",[1]; at 38 µM (top of the series),inconclusive: -37.3% [inhibitor]
O=c1cc(-c2ccc(O)cc2)oc2cc(O)cc(O)c12,"activity change, negative = inhibition",[1]; at 17.2 µM (top of the series),inconclusive: -116% [inhibitor]
same,"activity change, negative = inhibition",[1]; at 38 µM (top of the series),inconclusive: -106% [inhibitor]
same,Potency,[4],inconclusive [partial curve]
same,Potency,[5],inconclusive [single point]
same,Potency,[7],inconclusive [single point]
same,Potency,[8],inconclusive [partial curve]
same,"activity change, negative = inhibition",[3]; at 17.2 µM (top of the series),inconclusive: -100% [inhibitor]
same,"activity change, negative = inhibition",[3]; at 38 µM (top of the series),inconclusive: -88.2% [inhibitor]
O=c1c2ccccc2nc2n1CCc1c-2[nH]c2ccccc12,"activity change, negative = inhibition",[1]; at 38 µM (top of the series),inconclusive: 88.9% [activator]
Oc1ccc(OCc2ccccc2)cc1,"activity change, negative = inhibition",[1]; at 17.2 µM (top of the series),inconclusive: -35.5% [inhibitor]
O=c1cc(-c2ccccc2)oc2cc(O)cc(O)c12,"activity change, negative = inhibition",[1]; at 17.2 µM (top of the series),inconclusive: -109% [inhibitor]
same,"activity change, negative = inhibition",[3]; at 17.2 µM (top of the series),inconclusive: -87.2% [inhibitor]
CCCCc1oc2ccccc2c1C(=O)c1cc(I)c(OCCN(CC)CC)c(I)c1,"activity change, negative = inhibition",[1]; at 17.2 µM (top of the series),inconclusive: 8.98% [activator]
same,"activity change, negative = inhibition",[3]; at 17.2 µM (top of the series),inactive: 4.27%
